Results taken from publication PMC12136788.
Some of the results follow.

T1: UNK ZnF1-3 (human, UniProt Q9C0B0 31-174)
T1 sequence: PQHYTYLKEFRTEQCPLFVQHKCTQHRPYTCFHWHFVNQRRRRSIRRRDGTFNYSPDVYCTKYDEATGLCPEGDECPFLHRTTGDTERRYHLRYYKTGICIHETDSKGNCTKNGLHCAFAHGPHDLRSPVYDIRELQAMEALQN

B1: chr14:35505469:35505470:+_ENSMUSG00000041408_ENSMUST00000048263|mus_mus|FALSE|FALSE (ssRNA)
RNA: GGGAGUUCUACAGUCCGACGAUCCUGGAUGGUAACAUUACACACUGACAAGCAAGAUGGAUGUAAAACAGUGUAAUCUCUAGUCCGUCCAACUGUUCCUCGAAAACUGGUCCCACAACUUGCACUACCUUUCUUUGCCUGAUUCAACAGAGGAUUGAGCAUCA
B2: chr12:8716970:8716971:+_ENSMUSG00000020594_ENSMUST00000111122|mus_hu|FALSE|FALSE (ssRNA)
RNA: GGGAGUUCUACAGUCCGACGAUCUGGAGAAGCCUUGCCUUUUUGAUCUCCUUUCUCAGGUCCAUCUGUUUCAGCAUCUCUAGUGCCAAAAUUUCCCUUCCUAAAUCGAGAAUCCAAUUUAUCAGCAGGAGAAGAACUUAAUACCAACAGAGGAUUGAGCAUCA
B3: chr3:176767854:176767855:-_ENSG00000177565_ENST00000430069|hu_hu|hu_hu_hu_mus_False|48_68 (ssRNA)
RNA: GGGAGUUCUACAGUCCGACGAUCGACAUCCUUGUUACUGGGCACGUCCUGCCCUCCUUCCCGUAUGCAAUGUCUAAGCACGAGCUGUGUAGAGCCACUCGUGCUGUUCUCACUGAGGUUCCAGAUUCUUGCCGUGGAGUCUCCCAACAGAGGAUUGAGCAUCA
B4: 137520329_137520579_1933_CDS_ENSG00000112984_ENST00000394894|human|control|control (ssRNA)
RNA: GGGAGUUCUACAGUCCGACGAUCUCGGAGAUGCAUCUCCAGCUGUAGCUUUUCCUGUCGUUCCUUCAAAAGCAGUGUCUUCAUGGCUUCCACAACUUGUAGGAGCUCCUCUUUGCCAUACAUGGAGAUGUCAGCUUCAUUUUCCAACAGAGGAUUGAGCAUCA
B5: chr22:32879901:32879902:+_ENSG00000100225_ENST00000397426|hu_mus|hu_hu_hu_mus_False|8_78 (ssRNA)
RNA: GGGAGUUCUACAGUCCGACGAUCCUCUUCCAUACUCAUGGCAUCCUGAAUUGACUCAGCUUCAAAAUUUUGACUAGGCCCUUCCAUACUGUCAUCAGUCCAGGCAUCAAAUGGGGUGGCCUGUCCUUGGAAUGAAUCAGUCCCCAACAGAGGAUUGAGCAUCA
B6: chr14:62203736:62203737:+_ENSG00000100644_ENST00000337138|hu_mus|FALSE|FALSE (ssRNA)
RNA: GGGAGUUCUACAGUCCGACGAUCGCCGGCAGCUGGAGCCAGCAGAGUGAGAGCAUCAGGCUCCUUCUUAAGCUUAUCAAAAAGGCAGCUUGUAUCCUCUGAUUCAACUUUGGUGAACAGCUGAGUCAUCUUCAUAUCUGAAGACAACAGAGGAUUGAGCAUCA
B7: chr7:44244176:44244177:+_ENSG00000106636_ENST00000223369|hu_mus|hu_hu_hu_mus_False|78_108 (ssRNA)
RNA: GGGAGUUCUACAGUCCGACGAUCACUAUCAUUCCGGACGUAGACAUGGCAAAGAUAGUCUUGUUCUUUGACAGAAGCUCUGCUGCCUUUCCCCGAGCGUUCCACAAUCAGUUGACUUGUAAAGGUCAUGAAUUCCUGCACACUCAACAGAGGAUUGAGCAUCA
B8: chr5:31101443:31101444:+_ENSMUSG00000029168_ENSMUST00000114729|mus_hu|FALSE|FALSE (ssRNA)
RNA: GGGAGUUCUACAGUCCGACGAUCGUGGCUUCUGGGUCAGUAUCAGAAAAGCCCUCAUCACGACAUCGGCUUGACAGAGACCUACUGUGGACUCCUAGCACUACACACACGCACGCACACGCACACACAGUAGCACAAUUUUCUCAACAGAGGAUUGAGCAUCA
B9: chr11:100882373:100882374:+_ENSMUSG00000019302_ENSMUST00000044721|mus_mus|mus_mus_mus_hu_True|68_68 (ssRNA)
RNA: GGGAGUUCUACAGUCCGACGAUCUUCCUGGUUUGUGUUGAUUUCCUUCAGUUCAUUUUCAAUCUUCUCGAAAUUGGCCUCUAAGUCAAUCAUGUCCCGGGGGAAGGGAACCUCUGGGUUUUCACCGGUGUCCAUAAUCGGAAUCAACAGAGGAUUGAGCAUCA
B10: chr7:23239867:23239868:+_ENSG00000136243_ENST00000258742|hu_mus|FALSE|FALSE (ssRNA)
RNA: GGGAGUUCUACAGUCCGACGAUCUCCAAAUACUGAAGUGCUUCCGGAAGGAGGAGUGGCAAGUCCAGGGCUUGUUUUAAAACUAAAGUUCUGAACAGUACUGCUGCUGCUGUUAUUCACUGGGAAGCCUGGUGACCCAAACGACAACAGAGGAUUGAGCAUCA
B11: chr19:16212804:16212805:+_ENSG00000167460_ENST00000300933|hu_mus|hu_hu_hu_mus_False|8_28 (ssRNA)
RNA: GGGAGUUCUACAGUCCGACGAUCAACAAUUCUGGAGUGAAGGAAAGAUGUAACAUGGAACAGCAUUAAAGCUCAGUCAGAAGGCACAUGGGCAACAAUGAUCACCCCCCAAGCAUUGCUUGGAAUGUGCUUGAGAAAUCUGUUCAACAGAGGAUUGAGCAUCA
B12: chr4:120564514:120564515:+_ENSMUSG00000032890_ENSMUST00000071093|mus_mus|FALSE|FALSE (ssRNA)
RNA: GGGAGUUCUACAGUCCGACGAUCAAAGAAAAAGACAAGACAGAAAAGCAAGUGGAGACCAUAAGACAACAAGGCAGGGACUAAGCAAGGCCCACCAGUGGCCACAUCCCCUAUUUCCACCCCUGGAGAUUCCAUGGGCAAGAACAACAGAGGAUUGAGCAUCA
B13: chr1:46159212:46159213:+_ENSG00000159596_ENST00000372025|hu_mus|hu_hu_hu_mus_True|28_98 (ssRNA)
RNA: GGGAGUUCUACAGUCCGACGAUCUCUGAUCCCUCCCAAGAAAGAUAGGAAACCGGCUCCAUAAGCCAUCUGAGUGAAAGCUAGGACGGGGAUAUAAGACUUUGUUAUCAGCAUGACAAGUGGGGGAGCAGUAAAGGGGAUUAACAACAGAGGAUUGAGCAUCA
B14: chrX:98862621:98862622:+_ENSMUSG00000034160_ENSMUST00000044475|mus_hu|mus_mus_mus_hu_False|8_68 (ssRNA)
RNA: GGGAGUUCUACAGUCCGACGAUCCUGCAUCUCCUUUAGAGUGUUUCCCAUAUUAGAGUAGGCAUCAGCAAAUGUAGGACUGAUUCGAAUAGCCUCCUUAUAAUGCAUCAGAGCUUCCUGCAGUUUUCCCUGCUGUUGCAGUACCAACAGAGGAUUGAGCAUCA
B15: chr1:154966221:154966222:+_ENSMUSG00000042751_ENSMUST00000043313|mus_hu|FALSE|FALSE (ssRNA)
RNA: GGGAGUUCUACAGUCCGACGAUCACUUGAAUAUCAUUUUUUAUUAAUGAAUUGAUUUCCAUAAAGCAAAUCUUACUCUUAAAAUGGCAGAUUAUGUGAUCAAAAAGCGAUUCAAAAAAGCUUCCCCCUCCUCAUGCCAACCCUCAACAGAGGAUUGAGCAUCA
B16: 46070444_46083837_1657_CDS_ENSG00000136152_ENST00000349995|human|control|control (ssRNA)
RNA: GGGAGUUCUACAGUCCGACGAUCUUCUGUUGAACCAGAUUUUGUCAGACUGUUAGACUCUCCUUCUUCUAAGUGAACAUCUGAAAAUGAAGCUUCUGAAGGUACCUUCUUCUGUUCAUCUUUCAAACUCUGUGCAAUCUGCUCCAACAGAGGAUUGAGCAUCA
B17: chr1:193038565:193038566:+_ENSG00000116747_ENST00000367444|hu_hu|FALSE|FALSE (ssRNA)
RNA: GGGAGUUCUACAGUCCGACGAUCACGACCCCACAUGCCACAUUUCAUGCUUUCCUUCAGAUCUUUCUUAAACUGGAUAAAAGUAAAGAGAUGGGUAGGAAUGCGACAAACUUCAGAAACAGCUUUAAAUGCUGCUUGUUUUGUCAACAGAGGAUUGAGCAUCA
B18: chr2:112102183:112102184:+_ENSMUSG00000027133_ENSMUST00000028553|mus_hu|FALSE|FALSE (ssRNA)
RNA: GGGAGUUCUACAGUCCGACGAUCCGUUGAGGUAAUACUGGAGAAACAUGAUCGCUUAUAAGCCAGCGGUCCCAAUUCGGUCCACCGCUCAGUCUGCAGUGGUCCGCCCGACCGCGUCACGUGUUCGUCAAUUUCCUUCCUGCACAACAGAGGAUUGAGCAUCA
B19: 112608469_112614408_2246_CDS_ENSG00000153107_ENST00000341068|human|control|control (ssRNA)
RNA: GGGAGUUCUACAGUCCGACGAUCAAUAAAAACCUUUCCCACCCGAACCACUCCUGUGUAUAGCACCAGGUUUCCACUGCCUUCCAAGACCAGCAUGGUGUCUAUUUUCUCCACUGGUGCUGCAUCCUUUGCUGGUAUGUUGGUCAACAGAGGAUUGAGCAUCA
B20: chr2:9570881:9570882:+_ENSG00000119203_ENST00000238112|hu_mus|FALSE|FALSE (ssRNA)
RNA: GGGAGUUCUACAGUCCGACGAUCACUUGUCUUCUGAAGGAACCAGGGCAGGGCUCCACAGUGAUCCAAAUGGAAAUGACUGAUCAACAGAAGGUCGAUCUCAGCUGGGUCGAUAAGGUCAAUGUAAGGAAGGGCAUCCAUUCCCAACAGAGGAUUGAGCAUCA
B21: chr2:5814250:5814251:-_ENSMUSG00000025816_ENSMUST00000102981|mus_hu|mus_mus_mus_hu_True|18_18 (ssRNA)
RNA: GGGAGUUCUACAGUCCGACGAUCUUCCUUUCCGGUUUCUGAAUUUCUGGUAGAACUGCACAGAAUGGUUUGAUAACUUCUAAAAAUUUGAUGCCCAUGGCUGCUGCUGGGGAGGCCCGGCGGGCACCCGCGGCCUCGGCGCUGCAACAGAGGAUUGAGCAUCA
B22: chr10:36853155:36853156:-_ENSMUSG00000069662_ENSMUST00000092584|mus_hu|FALSE|FALSE (ssRNA)
RNA: GGGAGUUCUACAGUCCGACGAUCAUAACCCAGAGGAAGUAUUUUGUAACCACAGCAAAUGCCAUUAUACAUACUGCCAAUACAGAUUUAAUAGACAAUACUGAACUGUACAAGAGUUAUUUAUUUUUCCUUAAUCUCAAAGCUCAACAGAGGAUUGAGCAUCA

Target: T1, UNK ZnF1-3
Assay: nsRBNS (natural sequence RNA bind-n-seq); RBNS binding buffer (assumed for nsRBNS): 25 mM Tris pH 7.5, 150 mM KCl, 3 mM MgCl2, 0.01% Triton X-100, 500 ug/ml BSA, 20 U/ml SUPERase-In, 4 C; UNK is unkempt and MSI1 is Musashi-1; names of the RNAs are library labels; protein concentration not given here; high values mean tight binding

Binder	binding signal
B1	0.809 enrichment R
B2	1.02 enrichment R
B3	0.529 enrichment R
B4	0.49 enrichment R
B5	1.37 enrichment R
B6	1.22 enrichment R
B7	0.771 enrichment R
B8	0.972 enrichment R
B9	0.572 enrichment R
B10	1.35 enrichment R
B11	1.15 enrichment R
B12	1.41 enrichment R
B13	1.76 enrichment R
B14	1.12 enrichment R
B15	1.69 enrichment R
B16	0.578 enrichment R
B17	0.968 enrichment R
B18	0.574 enrichment R
B19	1.01 enrichment R
B20	1.29 enrichment R
B21	1.32 enrichment R
B22	0.933 enrichment R
